# According to PubChem BioAssay AID596 (National Center for Advancing Translational Sciences (NCATS), 2007):
# About 1,400 (2%) of roughly 71,000 compounds were called active. This list was built around the results that the source calls inconclusive (neither active nor inactive); the mix of calls is not that of the screen. Calls come from the whole dose curve; as a rule, active = well fitted curve in the direction sought with a large enough effect; inconclusive = small, poorly fitted or top-dose-only effect; inactive = no such curve, though single readings can be large or run the other way. Potencies of inconclusive entries are doubtful fits and often do not repeat.
# Target: Microtubule-associated protein tau (Homo sapiens) (UniProt P10636)
# Experiment: qHTS Assay for Tau Filament Binding;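 note: actives lower thioflavin S fluorescence by blocking filaments or displacing dye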
# Details: recombinant tau filaments, thioflavin S fluorescence, 15 h
# Description: NIH Molecular Libraries Screening Centers Network [MLSCN]
# NIH Chemical Genomics Center [NCGC]
# Assay Provider: Jeffrey A. Kuret, Ohio State University
# Tau monomers form filaments in vitro in the presence of anionic detergents or fatty acids. The dye Thioflavine S (ThS) binds to tau filaments and upon binding, increases in fluorescence several fold. Small molecules that displace ThS binding or prevent filament binding are identified by a reduction in ThS fluorescence. This assay used histidine-tagged, recombinant human tau protein containing the products of exons 2, 3, and 10 that was provided by Jeff Kuret, Ohio State University. To form filaments, 1 uM tau was incubated with 30 uM sodium octadecylsulfate (ODS) in reagent buffer (10 uM thioflavine S, 5 mM 1,4-dithioerythreitol (DTT), 100 mM sodium chloride, 10 mM HEPES pH 7.4) for 15 hrs at 37 C.
# NCGC Assay Protocol Summary:
# Assay Steps. Two uL/well of 2 uM tau in reagent buffer (10 uM thioflavine S, 5 mM DTT, 100 mM sodium chloride, 10 mM HEPES pH 7.4) was dispensed into solid black 1536-well plates. Twenty-three nL compound was transferred to the assay plate after which 2 uL/well of 60 uM ODS in reagent buffer was dispensed for a final assay volume of 4 uL /well. Following 15 hours of incubation at 37 C, fluorescence was detected by an Envision (Perkin Elmer) using 450/8 nm excitation and 510/23 nm emission.
# Keywords: NIH Roadmap, MLSCN, MLI, MLSMR, qHTS, NCGC, Alzheimer's disease, Neurofibrillary lesions, tau, tubulin assembly, microtubule stability, cytoskeletal integrity, fibrillization, thioflavin dyes, Amyloidgenic
# % is set by controls: 0 for no effect and ±100 for the full control effect; potency is the fitted concentration of half-maximal effect.
# Chain of UniProt P10636 (P10636 whole entry, looked up): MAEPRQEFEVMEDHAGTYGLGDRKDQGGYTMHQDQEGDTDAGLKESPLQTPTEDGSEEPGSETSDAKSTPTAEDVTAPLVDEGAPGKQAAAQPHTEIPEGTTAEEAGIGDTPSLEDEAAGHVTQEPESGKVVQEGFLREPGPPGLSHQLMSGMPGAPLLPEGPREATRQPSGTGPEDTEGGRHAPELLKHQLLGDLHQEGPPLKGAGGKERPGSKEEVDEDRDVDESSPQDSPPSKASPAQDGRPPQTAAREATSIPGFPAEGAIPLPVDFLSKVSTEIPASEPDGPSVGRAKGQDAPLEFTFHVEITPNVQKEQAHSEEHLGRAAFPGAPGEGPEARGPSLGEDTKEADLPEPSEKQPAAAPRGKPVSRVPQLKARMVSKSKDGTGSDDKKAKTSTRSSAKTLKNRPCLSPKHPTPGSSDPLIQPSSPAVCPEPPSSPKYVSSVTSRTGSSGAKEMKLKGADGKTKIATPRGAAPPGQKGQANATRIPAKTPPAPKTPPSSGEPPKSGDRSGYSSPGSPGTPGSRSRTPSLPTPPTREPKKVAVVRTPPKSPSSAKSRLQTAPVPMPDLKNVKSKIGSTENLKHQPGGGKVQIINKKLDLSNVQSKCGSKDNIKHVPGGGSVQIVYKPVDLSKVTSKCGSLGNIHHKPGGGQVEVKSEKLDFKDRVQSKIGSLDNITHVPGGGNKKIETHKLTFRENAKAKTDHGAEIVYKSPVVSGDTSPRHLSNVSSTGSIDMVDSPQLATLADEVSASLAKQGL
smiles,measurement,setting,value
CC1=CC(=O)C2=C(C)C[C@H](O)[C@@H]3[C@@H](OC(=O)[C@H]3C)[C@H]12,Potency,series mostly up to 57.1 µM,inconclusive: 39.8 µM [decreasing]
N[C@H](Cn1cc(I)c(=O)[nH]c1=O)C(=O)O,Potency,series mostly up to 57.1 µM,inactive
Clc1cccc(N2CCNCC2)c1,Potency,series mostly up to 57.1 µM,inconclusive: 39.8 µM [decreasing]
CCN(CC)Cc1c[nH]c2ccccc12,Potency,series mostly up to 57.1 µM,inconclusive: 31.6 µM [decreasing]
CC[C@@]1(O)C(=O)OCc2c1cc1n(c2=O)Cc2cc3ccccc3nc2-1,Potency,series mostly up to 57.1 µM,inconclusive: 39.8 µM [decreasing]
NC(=NCCC[C@H](N)C(=O)O)N[N+](=O)[O-],Potency,series mostly up to 57.1 µM,inconclusive: 39.8 µM [decreasing]
COc1ccc(C(=O)C(Cc2ccccc2)N(C)C)cc1 (stereo not drawn),Potency,series mostly up to 57.1 µM,inconclusive: 12.6 µM [decreasing]
Cc1o[nH]c(=O)c1C[C@@H](N)C(=O)O,Potency,series mostly up to 57.1 µM,inconclusive: 39.8 µM [decreasing] [filaments grown with octadecylsulfate alongside compound]
O=C(Oc1ccc([N+](=O)[O-])cc1)N1CCC(N2CCCCC2)CC1,Potency,series mostly up to 57.1 µM,inconclusive: 25.1 µM [decreasing]
CN1[C@@H]2CC[C@H]1CC(O[C@@H](c1ccccc1)c1ccc(Cl)cc1)C2 (stereo partly drawn),Potency,series mostly up to 57.1 µM,inconclusive: 39.8 µM [decreasing]
CCCC/C(C)=C/[C@@H](NP(=O)(c1ccccc1)c1ccccc1)c1ccccc1,Potency,series mostly up to 57.1 µM,inactive
C=C1C/C(=C\C)C(=O)O[C@@H]2CCN3CC=C(COC(=O)[C@]1(C)O)[C@H]23,Potency,series mostly up to 57.1 µM,inconclusive: 39.8 µM [decreasing] [filaments grown with octadecylsulfate alongside compound]
COc1ccc2c(c1O)-c1c(OC)c(OC)cc3c1[C@@H](C2)N(C)CC3,Potency,series mostly up to 57.1 µM,inconclusive: 39.8 µM [decreasing] [filaments grown with octadecylsulfate alongside compound]
CC[C@]1(O)C(=O)OCc2c1cc1n(c2=O)Cc2cc3ccccc3nc2-1,Potency,series mostly up to 57.1 µM,inconclusive: 39.8 µM [decreasing]
CCCCc1ccc(C(=O)O)nc1,Potency,series mostly up to 57.1 µM,inconclusive: 39.8 µM [decreasing]
Cc1ccc(-c2nc3ccccc3c(=O)n2-n2cccc2)cc1,Potency,series mostly up to 57.1 µM,inactive
C[C@@]12CCC[C@](C)(C(=O)O)[C@@H]1CCc1ccc(O)cc12,Potency,series mostly up to 57.1 µM,inconclusive: 39.8 µM [decreasing]
CN(C)Cc1c[nH]c2ccccc12,Potency,series mostly up to 57.1 µM,inconclusive: 39.8 µM [decreasing]
O=C(O)c1cccc([As]=[As]c2cccc(C(=O)O)c2)c1 (stereo not drawn),"activity change, negative = inhibition",series mostly up to 57.1 µM,inactive: 4.2% [at 11.4 µM]
Nc1ccncc1,Potency,series mostly up to 57.1 µM,inconclusive: 39.8 µM [decreasing]
Cl.Cl.Cl.Cl.Cl.Cl.N.N.N.N.NNNNN.NNNNN.O.O.[Ru].[Ru].[Ru],Potency,series mostly up to 57.1 µM,inconclusive: 39.8 µM [decreasing] [filaments grown with octadecylsulfate alongside compound]
Cn1cccc1CNCCc1ccccc1F,Potency,series mostly up to 57.1 µM,inconclusive: 31.6 µM [decreasing]
Cc1[nH]c2ccc(O)cc2c1CCN,Potency,series mostly up to 57.1 µM,inconclusive: 39.8 µM [decreasing]
N[C@H](C(=O)O)c1cc(=O)[nH]o1,Potency,series mostly up to 57.1 µM,inconclusive: 39.8 µM [decreasing] [filaments grown with octadecylsulfate alongside compound]
COc1ccc(N2CCN(C(CNC(=O)Oc3ccccc3)c3cccnc3)CC2)cc1 (stereo not drawn),Potency,series mostly up to 57.1 µM,inconclusive: 39.8 µM [decreasing] [filaments grown with octadecylsulfate alongside compound]
C[C@H]1CC[C@@H]2[C@@H](C)C(=O)O[C@H]3O[C@@]4(C)CC[C@@H]1[C@]32OO4,Potency,series mostly up to 57.1 µM,inconclusive: 39.8 µM [decreasing] [filaments grown with octadecylsulfate alongside compound]
c1ccc2c(c1)OC[C@@H](C1=NCCN1)O2,Potency,series mostly up to 57.1 µM,inconclusive: 39.8 µM [decreasing]
CN1C(=O)CCS(=O)(=O)[C@H]1c1ccc(Cl)cc1,Potency,series mostly up to 57.1 µM,inconclusive: 39.8 µM [decreasing]
CN1CCC(c2c[nH]c3ccc(O)cc23)CC1,Potency,series mostly up to 57.1 µM,inconclusive: 39.8 µM [decreasing]
COc1ccc2[nH]c3c(c2c1)CCN=C3C,Potency,series mostly up to 57.1 µM,active: 2.51 µM [filaments grown with octadecylsulfate alongside compound]
COc1ccn(C)c(=O)c1C#N,Potency,series mostly up to 57.1 µM,inconclusive: 39.8 µM [decreasing]
CC(C)[C@@]1(NC(=O)[C@@H]2C[C@H]3c4cccc5[nH]cc(c45)C[C@@H]3N(C)C2)O[C@@]2(O)[C@H]3CCCN3C(=O)[C@H](Cc3ccccc3)N2C1=O,Potency,,inconclusive: 39.8 µM [decreasing]
same,Potency,filaments grown with octadecylsulfate alongside compound,inconclusive: 31.6 µM [decreasing]
O=C1CC[C@@]2(O)[C@H]3Cc4ccc(O)c5c4[C@@]2(CCN3CC2CC2)[C@@H]1O5,Potency,series mostly up to 57.1 µM,inconclusive: 39.8 µM [decreasing]
C[As+](C)(c1ccc(Br)c([N+](=O)[O-])c1)c1ccc(Br)c([N+](=O)[O-])c1.O=[N+]([O-])O,Potency,series mostly up to 57.1 µM,inconclusive: 6.31 µM [decreasing] [filaments grown with octadecylsulfate alongside compound]
Cc1cccc(C2=NCC(=O)N(CC(=O)NCc3ccco3)c3sc4c(c32)CCCC4)c1,Potency,series mostly up to 57.1 µM,inactive
Brc1ccc(Oc2cc(Br)c(Br)cc2Br)c(Br)c1,Potency,series mostly up to 57.1 µM,inactive
CCN1C[C@]2(COC(=O)c3ccccc3N3C(=O)C[C@H](C)C3=O)CC[C@H](OC)[C@@]34[C@@H]5C[C@H]6[C@H](OC)[C@H]5[C@](O)(C[C@@H]6OC)[C@@](O)([C@@H](OC)[C@@H]23)[C@@H]14,Potency,series mostly up to 57.1 µM,inconclusive: 39.8 µM [decreasing]
CCCN(CCC)[C@@H]1CCc2ccc(O)cc2C1,Potency,series mostly up to 57.1 µM,inconclusive: 39.8 µM [decreasing]
CCN1C[C@]2(C)CC[C@@H](O)[C@]34[C@@H]5CC6[C@@H](OC)C[C@@](O)([C@H]5[C@@H]6O)[C@@H](C[C@@H]23)[C@H]14,Potency,series mostly up to 57.1 µM,inactive
COc1ccc(C[C@@H]2NC[C@H](O)[C@H]2OC(C)=O)cc1,Potency,series mostly up to 57.1 µM,inconclusive: 39.8 µM [decreasing]
CN(CCc1ccc(Cl)c(Cl)c1)[C@H]1CCCC[C@H]1N1CCCC1,Potency,series mostly up to 57.1 µM,inconclusive: 39.8 µM [decreasing]
N[C@@H](Cn1oc(=O)[nH]c1=O)C(=O)O,Potency,series mostly up to 57.1 µM,inconclusive: 39.8 µM [decreasing]
NC(N)=NOCC[C@H](N)C(=O)O,Potency,series mostly up to 57.1 µM,inconclusive: 39.8 µM [decreasing]
S=C(NC1CCCCC1)N1CCC(c2cnc[nH]2)CC1,Potency,series mostly up to 57.1 µM,inconclusive: 39.8 µM [decreasing]
CN1Cc2c(ccc3c2OCO3)[C@@H]2[C@@H](O)Cc3cc4c(cc3[C@@H]21)OCO4,Potency,series mostly up to 57.1 µM,inconclusive: 39.8 µM [decreasing]
C[C@H](N)Cc1cnc[nH]1,Potency,series mostly up to 57.1 µM,inconclusive: 39.8 µM [decreasing] [filaments grown with octadecylsulfate alongside compound]
O=C1C[C@@H]2OCC=C3CN4CC[C@]56c7ccccc7N1[C@H]5[C@@H]2[C@H]3C[C@@H]46,Potency,series mostly up to 57.1 µM,inconclusive: 39.8 µM [decreasing] [filaments grown with octadecylsulfate alongside compound]
CC(C)NC[C@H](O)c1ccc(N)c(C#N)c1,Potency,series mostly up to 57.1 µM,inconclusive: 39.8 µM [decreasing]
Cc1c(C(=O)c2ccc3ccccc3c2)c2cccc3c2n1[C@H](CN1CCOCC1)CO3,Potency,series mostly up to 57.1 µM,inconclusive: 39.8 µM [decreasing]
C[N+]1=Cc2cc3c(cc2CC1)OCO3,Potency,series mostly up to 57.1 µM,inconclusive: 39.8 µM [decreasing]
N[C@@]1(C(=O)O)CC[C@H](C(=O)O)C1,Potency,series mostly up to 57.1 µM,inconclusive: 39.8 µM [decreasing] [filaments grown with octadecylsulfate alongside compound]
O=C(O)c1cc[c]([Hg][S]c2ncnc3nc[nH]c23)cc1,"activity change, negative = inhibition",series mostly up to 57.1 µM,inactive: -10.2% [at 11.4 µM]
CCN(CC)c1ncnc2c1ncn2[C@@H]1O[C@@H](COP(=O)(O)OP(=O)(O)C(Br)(Br)P(=O)(O)O)[C@H](O)[C@H]1O,Potency,series mostly up to 57.1 µM,inconclusive: 39.8 µM [decreasing]
C=CCN1C[C@H](C)N([C@H](c2ccc(C(=O)N(CC)CC)cc2)c2cccc(O)c2)C[C@H]1C,Potency,series mostly up to 57.1 µM,active: 39.8 µM
COc1ccc2[nH]c(C)c(CCN3CCC(=O)C(C)C3C)c2c1 (stereo not drawn),Potency,series mostly up to 57.1 µM,inconclusive: 31.6 µM [decreasing]
COC1=C[C@H]2[C@@H]3Cc4ccc(OC)c(O)c4[C@@]2(CCN3C)CC1=O,Potency,series mostly up to 57.1 µM,inconclusive: 39.8 µM [decreasing]
CCN(CC)CCO[C@H]1CC[C@@]2(C)C(=CC[C@@H]3[C@H]2CC[C@]2(C)C(=O)CC[C@H]32)C1,Potency,series mostly up to 57.1 µM,inconclusive: 39.8 µM [decreasing]
CN(C)CCN(C)CCc1ccc(Cl)c(Cl)c1,Potency,series mostly up to 57.1 µM,inconclusive: 39.8 µM [decreasing]
Cn1cc(C(=O)N2CCC3(CC2)OCCO3)c2c3ccccc3n(C)c2c1=O,Potency,series mostly up to 57.1 µM,inactive
O=C(O)Cc1cccnc1C(=O)O,Potency,series mostly up to 57.1 µM,inconclusive: 31.6 µM [decreasing]
O=[N+]([O-])c1cc(O)c(O)c([N+](=O)[O-])c1,Potency,series mostly up to 57.1 µM,inconclusive: 39.8 µM [decreasing]
C/C(O)=C(/C#N)C(=O)Nc1cc(Br)ccc1Br,Potency,series mostly up to 57.1 µM,inconclusive: 39.8 µM [decreasing] [filaments grown with octadecylsulfate alongside compound]
